Source: US20230277682A1 (priority 2022, published 2023)

B1: 10987-12b (conjugate)
heavy: QVQLVESGGGVVQPGRSLRLSCAASGFTFSNYAMYWVRQAPGKGLEWVAVISYDGSNKYYADSVKGRFTISRDNSKNTLYLQMNSLRTEDTAVYYCASGSDYGDYLLVYWGQGTLVTVSS[human IgG1 constant region omitted here]
light: QSALTQPASVSGSPGQSITISCTGTSSDVGGYNYVSWYQQHPGKAPKLMIYDVSKRPSGVSNRFSGSKSGNTASLTISGLQSEDEADYYCNSLTSISTWVFGGGTKLTVLGQPKAAPSVTLFPPSSEELQANKATLVCLISDFYPGAVTVAWKADSSPVKAGVETTTPSKQSNNKYAASSYLSLTPEQWKSHRSYSCQVTHEGSTVEKTVAPTECS
B2: 10987-HC-Cterm-LLQGA-10b (conjugate)
heavy: QVQLVESGGGVVQPGRSLRLSCAASGFTFSNYAMYWVRQAPGKGLEWVAVISYDGSNKYYADSVKGRFTISRDNSKNTLYLQMNSLRTEDTAVYYCASGSDYGDYLLVYWGQGTLVTVSS[human IgG1 constant region and a few adjoining residues omitted here]
light: B1 light

System: VSVAG expressing the spike protein of SARS-CoV-2
Assay type: cell-based

Molecule | Fold Increase over Parental Antibody
B1 | 3.5 fold
B2 | 2.5 fold
